Assay results reported in publication PMC4336329 (PLoS ONE, 2015).
In all, about 310,000 compounds went through this assay and about 2,200 (0.71%) showed an effect of 50% or more. The effect is printed as a negative number. Some of the results follow.

What follows are molecules tested against human ether-à-go-go-related gene (hERG) potassium channel (human, UniProt Q12809) (assay: primary screen, population patch clamp on CHO cells stably expressing hERG).
Sequence of human ether-à-go-go-related gene (hERG) potassium channel (Q12809 whole entry, looked up): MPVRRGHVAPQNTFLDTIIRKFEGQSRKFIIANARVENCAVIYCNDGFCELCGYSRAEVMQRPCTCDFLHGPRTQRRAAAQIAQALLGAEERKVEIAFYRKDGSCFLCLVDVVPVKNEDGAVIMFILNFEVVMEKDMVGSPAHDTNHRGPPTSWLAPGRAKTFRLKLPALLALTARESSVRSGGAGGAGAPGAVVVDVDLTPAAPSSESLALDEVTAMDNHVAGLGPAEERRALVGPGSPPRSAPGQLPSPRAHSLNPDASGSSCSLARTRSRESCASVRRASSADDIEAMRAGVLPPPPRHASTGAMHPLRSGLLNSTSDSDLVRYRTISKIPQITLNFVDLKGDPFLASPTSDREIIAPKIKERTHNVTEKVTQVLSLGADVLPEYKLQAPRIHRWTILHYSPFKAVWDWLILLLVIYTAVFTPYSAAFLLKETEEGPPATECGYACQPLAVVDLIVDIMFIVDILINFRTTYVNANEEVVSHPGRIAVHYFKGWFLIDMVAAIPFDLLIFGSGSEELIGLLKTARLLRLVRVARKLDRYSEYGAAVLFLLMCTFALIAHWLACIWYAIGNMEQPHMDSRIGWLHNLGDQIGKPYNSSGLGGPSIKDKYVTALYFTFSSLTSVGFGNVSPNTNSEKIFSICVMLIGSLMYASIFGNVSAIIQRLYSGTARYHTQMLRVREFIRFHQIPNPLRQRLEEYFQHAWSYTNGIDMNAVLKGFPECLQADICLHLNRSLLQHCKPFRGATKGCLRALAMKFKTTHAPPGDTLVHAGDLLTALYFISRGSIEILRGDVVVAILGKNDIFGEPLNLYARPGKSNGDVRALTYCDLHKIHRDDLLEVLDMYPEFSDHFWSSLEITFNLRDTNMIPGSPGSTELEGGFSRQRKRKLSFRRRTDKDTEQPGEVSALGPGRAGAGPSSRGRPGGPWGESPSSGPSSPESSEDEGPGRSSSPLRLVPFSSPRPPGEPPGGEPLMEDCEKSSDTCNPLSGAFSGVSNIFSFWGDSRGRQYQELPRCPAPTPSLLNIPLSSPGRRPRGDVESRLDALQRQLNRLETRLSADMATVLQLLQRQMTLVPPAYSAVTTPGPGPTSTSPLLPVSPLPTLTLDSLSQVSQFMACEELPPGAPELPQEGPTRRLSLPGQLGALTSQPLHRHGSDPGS

| SMILES | hERG current change (%, negative = inhibition) at 1uM [%] |
| --- | --- |
| COC(=O)c1c(C)c2c(C)cc3ccccn3c-2c1C(=O)OC | 2.84 |
| CCC[N+](CC#CCO)(CC#Cc1ccccc1)CCC.[Br-] | 5.79 |
| C/C(=N\NC(=O)c1ccncc1)c1ccc(N2CCOCC2)cc1 | 3.84 |
| O=C(NCC1CCOCC1)c1cc(COc2ccc(F)cc2F)on1 | 2.28 |
| O=C(NCc1ccccc1)N1CCC(n2cnc3cc(F)ccc32)CC1 | -56.6 |
| N#C/C(C(=O)NCc1ccccc1)=C1/N=C(NC(=O)c2ccco2)c2ccccc21 | 14.6 |
| O=C(Nc1ccccc1)C1CCCN1S(=O)(=O)c1ccc(Br)cc1 (stereo not drawn) | 15.4 |
| O=C(CSc1ccc(-c2ccc(F)cc2)nn1)NCC1CCCO1 (stereo not drawn) | 11.2 |
| CS(=O)(=O)N1CCC(C(=O)NCc2ccc(F)cc2Cl)CC1 | 4.05 |
| Cc1noc(C)c1S(=O)(=O)N1CCN(c2ccccc2)CC1 | 13.4 |
| O=C(COC(=O)c1ccccc1F)Nc1cc(S(=O)(=O)N2CCOCC2)ccc1N1CCCC1 | 0.893 |
| CC1Cc2cc(C(=O)O)ccc2O1 (stereo not drawn) | 0.102 |
| CCOc1cccc(C(=O)NC(=S)Nc2cccc(C)c2)c1 | 1.57 |
| Cc1ccc(Nc2nnc(SCC(=O)Nc3cccc(S(=O)(=O)NC4=NCCCCC4)c3)s2)c(C)c1 | 7.44 |
| O=C(N/N=C/c1cc2ccccc2nc1Cl)c1ccncc1 | -3.13 |
| CCOc1ccc2[nH]c3c(N4CCN(C(=O)c5ccco5)CC4)ncnc3c2c1 | -3.41 |
| O=C(c1ccco1)N1N=C2CCCCCC2C1(O)C(F)(F)F (stereo not drawn) | 9.28 |
| COc1cc(C(=O)Nc2ccc3c(c2)C(=O)c2ccccc2C3=O)cc(OC)c1OC | -0.394 |
| COc1ccc(C2NC(=O)NC(C)=C2C(=O)OC2CCC(C)CC2)cc1 (stereo not drawn) | 11.1 |
| CC(C)(C)C(=O)N(Cc1ccccc1)c1ccccn1 | 8.84 |
| CCOC(=O)CSc1nc(C)c(Oc2ccc(Cl)cc2Cl)c(=O)[nH]1 | 7.67 |
| CC(=O)c1ccc(OCCCC(=O)Nc2ccc(C)c(S(=O)(=O)N(C)C)c2)cc1 | 12.7 |
| CNc1ccc(C(=O)OCC(=O)Nc2ccnn2C(C)C)cc1[N+](=O)[O-] | 14.8 |

| SMILES | hERG current change (%, negative = inhibition) at 1uM [%] |
| --- | --- |
| N/C(=N\OC(=O)C1CCCCC1)c1cccc([N+](=O)[O-])c1 | 9.29 |
| COc1ccc(C(=O)Nc2cc3c(cc2N2CCOCC2)n(C)c(=O)n3C)cc1OC | 11.8 |
| Cc1ccc(/C=N/Nc2cc(C)nc(NCc3ccccc3)n2)cc1 | 11.1 |
| Cc1ccc(NC(=O)CSc2nnc(Cn3c(=O)sc4ccccc43)n2C)cc1Cl | 6.75 |
| Cc1ccc(NC(=S)N(CCCN2CCOCC2)Cc2cccs2)c(C)c1 | 5.6 |
| COC(=O)c1ccc(NC(=O)CSc2nc3ncccc3[nH]2)cc1 | 10.5 |
| Cn1c(=O)cc(OCCCC(=O)N2CCN(c3ccccc3)CC2)c2ccccc21 | -18.6 |
| C[C@]12CCC[C@H](O1)[C@H]([C@@H](O)c1ccccc1)O2 | 16.5 |
| O=C(N/N=C/c1c(O)ccc2ccccc12)Nc1ccccc1 | 13.3 |
| N#Cc1cnc(NCc2ccc(Cl)cc2Cl)nc1 | 8.08 |
| CC1CC(C)CN(S(=O)(=O)c2cc3c4c(c2)C(C)C(=O)N4CCC3)C1 (stereo not drawn) | 17.1 |
| CC(=O)c1ccc(NC(=O)C2CCCN2S(=O)(=O)c2cccs2)cc1 (stereo not drawn) | 16.1 |
| O=C(NCc1cccs1)c1noc2c1CCCCC2 | 1.97 |
| COc1ccccc1NC(=O)N1CCn2c(nc3ccccc32)C1 | -5.19 |
| COC(=O)C1=C(c2ccc(F)cc2F)C[C@@H]2CC[C@H]1N2C(=O)N1CCCC1 | 12 |
| N#C/C(=C\c1ccc(O)c(O)c1)C(=O)N1CCCC1 | 14.9 |
| O=C(CCC1CCCC1)NNC(=O)c1cc2ccccc2cc1O | 5.02 |
| NNC(=O)c1n[nH]c2c1CC(C1CCCCC1)CC2 (stereo not drawn) | 15.4 |
| CCCOc1ccc(Cl)cc1Nc1nc(NCCO)nc(N2CCCC2)n1 | 19.4 |
| CC1CCCCC1NC(=O)C1CCC(CNS(=O)(=O)c2ccccc2)CC1 (stereo not drawn) | 15.7 |
| CCOC(=O)c1ccc(S(=O)(=O)N2CCN(c3ccccn3)CC2)cc1 | 11.1 |
| Cc1cccc(NC(=S)N2CCCC2)c1 | 16.9 |
